Inconclusive means that the source gave no clear call. Such entries were picked first, then a sample of the others. Potencies beside an inconclusive call are fits to weak or partial responses and may not hold up. Active and inactive are the calls of the source. The call rests on the fitted dose curve; in most records, active means well fitted inhibition curve with a large enough effect; inconclusive means small, poorly fitted or top-dose-only effect; inactive means no such curve, though single readings can be large or run the other way.
Molecular target: Retinaldehyde dehydrogenase 3 (Homo sapiens) (UniProt P47895)
Experiment: qHTS for Inhibitors of the Aldehyde Dehydrogenase Family (ALDH1A3) Primary screen (AID 2061315);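 on activity change, negative = inhibition: plate controls were DMSO vehicle for no effect and reference inhibitor for full effect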
Settings: ALDH inhibition qHTS; series mostly up to 56 µM; activity change, negative = inhibition: at the top concentration
Potency means the concentration at half of the fitted maximal effect; tags describe the fitted curve by direction and shape.

Q: With `C[C@@H]1C[C@@H](O)[C@]2(O)O[C@@H]3C[C@@]4(C=O)C(CC[C@@H]5C4CC[C@]4(C)[C@@H](C6=CC(=O)OC6)CC[C@]54O)C[C@H]3O[C@@H]2O1` (some centres not stated) as the compound, how does the Potency read?
A: inconclusive: 5.62 µM [inhibitor, partial curve, poor fit]

Q: `N#C[C@@H](O[C@@H]1O[C@H](CO[C@@H]2O[C@H](CO)[C@@H](O)[C@H](O)[C@H]2O)[C@@H](O)[C@H](O)[C@H]1O)c1ccccc1` was tested. Which Potency did it give?
A: inconclusive: 11.2 µM [inhibitor, single point]

Q: How did the Potency turn out when `CCOC(=O)Nc1ccc(NCc2c(C)cc(C)cc2C)cc1N` was run?
A: inconclusive: 3.55 µM [inhibitor, full curve]

Q: `CC1=C[C@H]2O[C@@H]3C[C@H]4OC(=O)/C=C/C=C/C(=O)OCC/C(C)=C/C(=O)OC[C@@]2(CC1)[C@]4(C)[C@]31CO1` was tested. Which “activity change, negative = inhibition” value did it give?
A: inactive: 2.5% [at 28 µM]

Q: Which Potency does the source give for `COC1CC(O[C@H]2CC[C@]3(C)C4CC[C@]5(C)[C@@H](C6=CC(=O)OC6)[C@@H](OC(C)=O)C[C@]5(O)C4CC[C@@H]3C2)OC(C)C1O` (some centres not stated) here?
A: inconclusive: 11.2 µM [inhibitor, partial curve]

Q: For `CC(=O)OC[C@]12C[C@H](OC(=O)CC(C)C)C(C)=C[C@H]1O[C@@H]1[C@H](O)[C@@H](OC(C)=O)[C@@]2(C)[C@@]12CO2`, which “activity change, negative = inhibition” value is on record?
A: inactive: -0.52% [at 28 µM]

Q: How did the “activity change, negative = inhibition” value turn out when `CC(C)=CCC[C@]1(C)C=Cc2c(O)c3c(c(CC=C(C)C)c2O1)O[C@]12C(=C[C@@H]4CC1C(C)(C)O[C@@]2(C/C=C(/C)C(=O)O)C4=O)C3=O` was run?
A: inactive: -0.89%

Q: `CC[C@@H]1C[C@H]2CC[C@H](O2)[C@H](C)C(=O)O[C@@H](C)C[C@@H]2CC[C@@H](O2)[C@@H](C)C(=O)O[C@H](CC)C[C@H]2CC[C@H](O2)[C@H](C)C(=O)O[C@@H](C)C[C@@H]2CC[C@@H](O2)[C@@H](C)C(=O)O1` was tested. Which Potency did it give?
A: inconclusive: 2.51 µM [inhibitor, partial curve]

Q: With `COC1CC(O[C@H]2CC[C@]3(C)C4CC[C@]5(C)[C@@H](C6=CC(=O)OC6)[C@@H](OC(C)=O)C[C@]5(O)C4CC[C@@H]3C2)OC(C)C1O[C@@H]1O[C@H](CO)[C@@H](O)[C@H](O)[C@H]1O` (some centres not stated) as the compound, how does the Potency read?
A: inconclusive: 7.08 µM [inhibitor, single point]

Q: How did the Potency turn out when `CNc1ccc2oc(C[C@H]3O[C@@]4(CC[C@H]3C)O[C@H](C(C)C(=O)c3ccc[nH]3)[C@H](C)C[C@H]4C)nc2c1C(=O)O` (some centres not stated) was run?
A: active: 11.2 µM

Q: With `C[C@@H]1C[C@@H](O)[C@]2(O)O[C@@H]3C[C@@]4(C=O)C(CC[C@@H]5C4CC[C@]4(C)[C@@](O)(C6=CC(=O)OC6)CC[C@]54O)C[C@H]3OC2O1` (some centres not stated) as the compound, how does the Potency read?
A: inconclusive: 11.2 µM [inhibitor, partial curve, poor fit]

Q: For `C[C@@H]1O[C@@H](OC2CCC3(C=O)C(CCC4C3CCC3(C)C(C5=CC(=O)OC5)C(O)CC43O)C2)[C@H](O)[C@H](O)[C@H]1O[C@@H]1O[C@H](CO)[C@@H](O)[C@H](O)[C@H]1O` (some centres not stated), which Potency is on record?
A: inconclusive: 10 µM [inhibitor, partial curve]

Q: With `CCCCCn1cc(C(=O)c2cccc3ccccc23)c2ccccc21` as the compound, how does the “activity change, negative = inhibition” value read?
A: inactive: -6.14%

Q: Which Potency does the source give for `COC1CC(OC2CCC3(C=O)C(CCC4C3CCC3(C)C(C5=CC(=O)OC5)CCC43O)C2)OC(C)C1O` (configuration not stated) here?
A: inconclusive: 20 µM [inhibitor, single point]

Q: `C=C1[C@@H](O)[C@]2(O)OC[C@]34C2[C@]2(C)C(C[C@H]3OC(=O)[C@H](O)[C@@]14O)C(C)=CC(=O)[C@H]2O` (some centres not stated) was tested. Which “activity change, negative = inhibition” value did it give?
A: inactive: 2.29% [at 28 µM]

Q: `CC1=CC(=O)[C@@H](O)[C@]2(C)C3[C@@H](O)[C@@H]4OC(=O)[C@@H]([C@H]4C)[C@]3(C)C(=O)[C@H](O)[C@@H]12` (some centres not stated) was tested. Which Potency did it give?
A: inconclusive: 7.94 µM [inhibitor, partial curve]

Q: With `C[C@@H]1O[C@@H](O[C@H]2CC[C@@]3(C)C(CC[C@@H]4C3CC[C@]3(C)[C@@H](C5=CC(=O)OC5)CC[C@]43O)C2)[C@H](O)[C@H](O)[C@H]1O` (some centres not stated) as the compound, how does the “activity change, negative = inhibition” value read?
A: inactive: -6.81% [at 28 µM]

Source: PubChem BioAssay (NCATS)
